Source: article PMC10466050, “A comparative study of human and zebrafish glucocorticoid receptor activities of natural and pharmaceutical steroids” (Frontiers in Endocrinology, 2023)

Tests used:
zfGR = zfGR (Danio rerio, UniProt Q1XHK0); test: In vitro transactivation assay (agonism), UMLN-zfGR reporter cells
hGR [1] = target: T1, hGR (Homo sapiens, UniProt P04150); test: In vitro transactivation assay (agonism), HMLN-hGR reporter cells; details: HMLN-hGR; % of maximal luciferase activity induced by 100 nM dexamethasone; at 10^-5M (10^-6M for bimedrazole, cortivazol, dexamethasone)
T1 sequence (P04150 1-777): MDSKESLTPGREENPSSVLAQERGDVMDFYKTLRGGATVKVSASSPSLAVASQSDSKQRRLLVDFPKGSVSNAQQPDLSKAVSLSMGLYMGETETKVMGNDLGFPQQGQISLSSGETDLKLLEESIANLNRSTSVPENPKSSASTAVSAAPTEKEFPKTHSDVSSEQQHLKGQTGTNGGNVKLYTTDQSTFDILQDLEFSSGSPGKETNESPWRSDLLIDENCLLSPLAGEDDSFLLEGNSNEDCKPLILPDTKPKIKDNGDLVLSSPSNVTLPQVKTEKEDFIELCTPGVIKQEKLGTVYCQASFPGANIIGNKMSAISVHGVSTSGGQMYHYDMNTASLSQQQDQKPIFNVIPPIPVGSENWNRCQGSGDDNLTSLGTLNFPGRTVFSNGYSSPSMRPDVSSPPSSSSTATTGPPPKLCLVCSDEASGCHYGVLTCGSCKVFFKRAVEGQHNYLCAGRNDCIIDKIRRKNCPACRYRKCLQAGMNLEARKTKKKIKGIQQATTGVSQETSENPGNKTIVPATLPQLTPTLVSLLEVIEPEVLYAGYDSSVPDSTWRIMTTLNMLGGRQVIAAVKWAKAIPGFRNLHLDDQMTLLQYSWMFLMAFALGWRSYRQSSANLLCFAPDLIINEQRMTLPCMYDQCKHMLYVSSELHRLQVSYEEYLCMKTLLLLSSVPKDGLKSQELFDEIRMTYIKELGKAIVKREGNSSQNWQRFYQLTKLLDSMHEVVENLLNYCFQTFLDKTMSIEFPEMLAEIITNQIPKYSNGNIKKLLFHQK

hGR [2] = target: T1, hGR; details: HMLN-hGR; with 3 nM dexamethasone; % of maximal luciferase activity induced by 100 nM dexamethasone; at 10^-5M
hGR [3] = target: T1, hGR; test: cell-based

REP (relative potency) (zfGR; UMLN-zfGR, ratio of EC50 values, DEX set at 1) | % min act (minimal activity) (hGR [2]) [%] | IC50 (hGR [3]) [nM] | Compound | EC50 (zfGR) [nM] | % max act (maximal activity) (hGR [1]) [%]
5.2 | – | – | CC(=O)OCC(=O)[C@@]1(O)[C@H](C)C[C@H]2[C@@H]3C=C(C)C4=Cc5c(cnn5-c5ccccc5)C[C@]4(C)[C@H]3[C@@H](O)C[C@@]21C [cortivazol] | 0.38 | –
– | – | – | C[C@@H]1C[C@H]2[C@@H]3CCC4=CC(=O)C=C[C@]4(C)[C@@]3(F)[C@@H](O)C[C@]2(C)[C@@]1(O)C(=O)CO [dexamethasone] | – | 100 ± 0
– | – | – | CCC(=O)O[C@]1(C(=O)SCF)[C@H](C)C[C@H]2[C@@H]3C[C@H](F)C4=CC(=O)C=C[C@]4(C)[C@@]3(F)[C@@H](O)C[C@@]21C [fluticasone proprionate, fluticasone propionate] | 0.23 | 119 ± 9
– | – | – | C[C@H]1C[C@@H]2[C@H]([C@@H](O)C[C@@]3(C)[C@H]2CC[C@]3(O)C(=O)CO)[C@@]2(C)C=CC(=O)C=C12 [medrol] | 12 | 119 ± 5
– | 3 ± 1 | 772 | CCC(=O)[C@@]1(C)CC[C@H]2[C@@H]3CCC4=CC(=O)CCC4=C3CC[C@@]21C [promegestone] | – | –
